Values after ≈ are worked out from the molar mass of the structure shown.
System: Proteus vulgaris A9436
Type: cell-based
Settings: nutrient agar, 10^4 CFU/ml

CC1(C)S[C@@H]2[C@H](NC(=O)[C@H](N)c3ccccc3)C(=O)N2[C@H]1C(=O)O [Ampicillin, reference compound]
MIC: 0.4 µg/mL (≈ 1.14 µM)

— patent publication US4935362A, “BMY-28121, a new antitumor antibiotic” (Bristol-Myers Company, priority 1987, dated 1990)
